For 85 molecules, GI50 and TGI results are on record in PubChem BioAssay (NCI).

Several values for one entry are separate records, joined by “and”; a condition that tells them apart may be missing. Equal entries are not always repeated.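 Grown in 96-well plates, cells were treated for 48 hours with each compound at five concentrations. Insufficient inhibition: endpoint recorded as highest concentration tested. The concentration for 50% growth inhibition is given as GI50. TGI: concentration producing complete growth inhibition.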

In this assay the test system is NCI-H322M lung. Description: inhibition of tumour cell growth, NCI panel, 48 h.

Consider `O=C(NN1C(=O)CSC12CCCC2)c1[nH]c2ccc(Br)cc2c1-c1ccccc1`, for which the GI50 is 32.5 µM and the TGI is over 100 µM.

On to `COc1ccc(OC)c(NC(=O)CCC/C(CC(=O)c2ccc(O)c(OC)c2)=N\Nc2ccc([N+](=O)[O-])cc2)c1`, for which the TGI is over 100 µM.

Take `O=c1nc2oc3ccc4ccccc4c3cc-2s1`: the GI50 was 14.7 µM and the TGI was over 100 µM.

In turn, `O=C1/C(=N\S(=O)(=O)c2ccccc2)C([n+]2ccc(Cc3ccccc3)cc2)=C([O-])c2ccccc21` came in with a TGI of 3.08 µM.

`C1=C2/CC[C@H](Sc3ccccc3)[C@H]2C2(CCCCC/1)OCCO2`: the TGI is over 100 µM.

As for `NC(=O)c1c(NC(=O)c2ccc3c(c2)OCO3)sc2c1CCC(=O)C2`, the GI50 is 2.99 µM and the TGI is over 100 µM.

For the molecule `CCN(CC)Cc1ccc(Nc2nccc(-c3cnn4ncccc34)n2)cc1`, the GI50 is 0.0381 µM and the TGI was over 6.19 µM.

`COc1cc(C(C)c2cc3c(cc2OCCO)OCO3)cc(OC)c1OC` (stereo unspecified) displayed a TGI of over 100 µM.

`C/C=C(/COC(C)=O)C(=O)OC1C=C(C=O)C(C)(C)C=C1C` (stereo unspecified) displayed a TGI of over 100 µM.

`O=c1[nH]nc(-c2ccccc2)n1/N=C/c1cccnc1` showed a TGI of over 100 µM.

The molecule `CC(C)(Oc1ccc(Cl)cc1)C(=O)N(C(=O)N1CCC(c2ccccc2)CC1)c1ccccc1` displayed a TGI of over 100 µM.

`C=C1C(=O)OC2/C=C(/C)C(OC(C)=O)CC(O)/C(C)=C\C(OC(=O)/C(C)=C\C)C12` (stereo unspecified) registered a TGI of over 100 µM.

For the molecule `C[C@@H]1CC[C@H]2C(C(O)CCCCC(O)C3=C(C(F)(F)F)O[C@@H]4O[C@@]5(C)CC[C@H]6[C@H](C)CC[C@@H]3[C@@]46OO5)=C(C(F)(F)F)O[C@@H]3O[C@@]4(C)CC[C@@H]1[C@]32OO4` (stereo partly specified), the GI50 was over 100 µM and the TGI was over 100 µM.

In the case of `COc1ccc(NC(C)=O)cc1N1C(=O)/C(=C\c2cc(OC)c(OC)c(OC)c2)SC1c1ccccc1` (stereo unspecified), the TGI is over 100 µM.

Consider `COc1cc([C@H]2OC[C@H]3[C@@H]2CO[C@@H]3c2cc(OC)c3c(c2)OCO3)cc(OC)c1OC`, for which the TGI is over 100 µM.

Take `COC1OC2COC1(OC)C1OC(C)(C)OC21` (stereo unspecified): the TGI was over 100 µM.

`COC(=O)C(Cc1ccccc1)NP(=O)(O)OCC1OC(n2cc(F)c(=O)[nH]c2=O)CC1O` (stereo unspecified) registered a TGI of over 100 µM.

Consider `CCOC(=O)NC(=O)c1cn(CCCCCCOC(=O)NCCCCCCNC(=O)OCCCCCCn2cc(C(=O)NC(=O)OCC)c(=O)[nH]c2=O)c(=O)[nH]c1=O`, for which the TGI was over 100 µM.

`COc1ccc(-c2cc(-c3ccc(Nc4ccnc5cc(Cl)ccc45)cc3)[nH]c(=O)c2C#N)c2ccccc12` displayed a TGI of over 91.2 µM.

`CCOC(=O)C(=Cc1cccnc1C)C(=O)OCC` yielded a TGI of 21.8 µM.

Turning to `COc1ccc(-c2c(C#N)c(S)n(NS(=O)(=O)c3ccc(C)cc3)c(=O)c2C#N)cc1`, the TGI is over 100 µM.

`COc1cc(/C=C2\Sc3scc(-c4cccc([N+](=O)[O-])c4)[n+]3C2=O)cc(OC)c1OC` came in with a TGI of 99.6 µM.

Consider `COc1ccc2nc3cc([N+](=O)[O-])ccc3c(Nc3ccc(S(=O)(=O)NC(C)=O)cc3)c2c1`, for which the TGI was over 100 µM.

For the molecule `N#CC(c1nc2ccccc2nc1Cl)S(=O)(=O)c1ccccc1` (stereo unspecified), the TGI was over 100 µM.

`COc1ccccc1NC(=O)CC(=O)N1N=C(C)C(N=Nc2ccc(C(=O)O)cc2)C1=O` (stereo unspecified) yielded a TGI of over 100 µM.

Molecule `CSc1n[nH]c(N)c1C(=O)Nc1ccc(C)cc1` displayed a TGI of over 100 µM.

`CCCCCCCCCCCCCCCCCCNc1ccn(C2OC(COP(=O)(O)OCC3OC(n4cc(F)c(NCCCCCCCCCCCCCCCCCC)nc4=O)CC3O)C(O)C2O)c(=O)n1` (stereo unspecified) came in with a TGI of over 100 µM.

`CN(/N=C/c1cccc2cccnc12)c1ccccc1`: the TGI is over 100 µM.

The molecule `COc1c2c(nc3ccccc13)-c1cc3c(c(=O)n1C2)COC(=O)C3(O)CC(=O)N1CCOCC1` (stereo unspecified) registered a TGI of 84.6 µM.

Molecule `CCOP(=O)(OCC)C1CC(n2cc(C)c(=O)[nH]c2=O)OC1CO` (stereo unspecified) came in with a TGI of over 100 µM.

The molecule `CN1c2ccccc2N(C)C23N(C)c4ccccc4N(C)C12N(C)c1ccccc1N3C` (stereo unspecified) displayed a TGI of over 100 µM.

`O=CN/C=C/c1ccc(O)c(O)c1` registered a TGI of over 100 µM.

As to `Nc1ncnc2c1nnn2C1CCC(CP(=O)(O)O)C1` (stereo unspecified), the TGI was over 100 µM.

`O=C(Nc1ccccc1)N(CCCCN(Cc1ccccc1)C(=O)Nc1ccccc1)Cc1ccccc1` yielded a TGI of over 100 µM.

For the molecule `CN1CCN(CCCBr)CC1`, the TGI was over 100 µM.

`COc1cc(/C=C2/C[C@H]3[C@@H]4CC=C5C[C@@H](OC(C)=O)CC[C@]5(C)[C@H]4CC[C@]3(C)NC2=O)cc(OC)c1OC` returned a TGI of over 100 µM.

Take `Cc1ccc2c(c1C)C(=O)/C(=C/c1ccccc1C(=O)O)C2`: the TGI was over 100 µM.

With `COc1cccc(-n2ncc3c(N/N=C/c4ccncc4)ncnc32)c1`, the GI50 is over 25 µM and the TGI was over 25 µM.

`N#Cc1c(-c2ccc(Cl)cc2)c2c(n(C3OC(CO)C(O)C(O)C3O)c1=S)CCC2` (stereo unspecified) gave a TGI of over 100 µM.

In turn, `CCOC(=O)NC(=O)c1cn(CCN2CCN(c3ncnc4nc[nH]c34)CC2)c(=O)[nH]c1=O` showed a TGI of over 100 µM.

`O=C(O)c1nc(-c2ccccc2)[nH]c1C(=O)O` displayed a TGI of 30.9 µM.

Take `CC1(C)[C@H]2CC[C@]1(C)[C@H](OC(=O)NNC(=O)O[C@@H]1C[C@@H]3CC[C@@]1(C)C3(C)C)C2`: the TGI was 39.9 µM.

Consider `[N-]=[N+]=NC(CI)c1cn([C@H]2C[C@H](O)[C@@H](CO)O2)c(=O)[nH]c1=O` (stereo partly specified), for which the TGI is over 100 µM.

For `O=C(c1cc(Cl)ccc1Cl)N1CCN(C(=O)c2cc(Cl)ccc2Cl)CC1`, the TGI was over 100 µM.

In the case of `O=C(Nc1ccc(Cl)cc1)Nc1ccc(Nc2nncc3ccccc23)cc1`, the GI50 was 5 µM and the TGI worked out at 50.4 µM.

The molecule `O=C(c1ccccc1)c1cccc(C(=O)c2ccccc2)c1` returned a TGI of over 100 µM.

`O=CC1CCCc2ccccc21` (stereo unspecified) registered a TGI of over 100 µM.

For the molecule `O=[N+]([O-])c1cccc([As]=[As]c2cccc([N+](=O)[O-])c2)c1` (stereo unspecified), the GI50 is 0.186 µM and the TGI is 0.338 µM.

For `Cc1cc(N2CCCC2)nc(N(CCNc2ccnc3cc(Cl)ccc23)Cc2ccco2)n1`, the GI50 was 3.16 µM and the TGI was over 100 µM.

For `C[C@]12CCC3[C@@H](CC[C@@H]4c5nonc5CC[C@]34C)C1C/C(=N/O)C2=O` (stereo partly specified), the TGI is over 100 µM.

Regarding `COC(=O)[C@H]1CO[C@H]2C/C(C)=C/CC/C(C)=C/CC[C@@]3(C)O[C@@H]3C[C@H]21`, the TGI stood at 38 µM.

In the case of `COc1ccc(-n2c(=O)n(C)c(=O)n2-c2ccc(OC)cc2)cc1`, the TGI was over 100 µM.

`CC(C)(O)CC(=O)NCCn1ccc2ncnc(Nc3ccc(Oc4cccc(C(F)(F)F)c4)c(Cl)c3)c21`: the GI50 was 0.602 µM and the TGI was over 10 µM.

`CS[C@]12C(=O)C[C@@]3(C)[C@@H](CC[C@]3(O)C(=O)CO)[C@@H]1CCC1=CC(=O)CC[C@@]12C` showed a TGI of over 100 µM.

On to `CC[C@H](CO)Nc1nc(NCc2ccccc2)n2ncc(C(C)C)c2n1`, for which the GI50 is 1.86 µM and the TGI worked out at 8.91 µM.

In the case of `Cc1[nH]c2ccccc2c1C1Cc2ccccc2N1C(=O)/C=C/C(=O)O` (stereo unspecified), the TGI was over 100 µM.

Molecule `C#CCSC(C=C=C)P(=O)(OC(C)C)OC(C)C` (stereo unspecified) returned a TGI of over 100 µM.

For the molecule `COc1ccc(C(=O)Cc2ccc(Br)cc2)cc1OC`, the TGI is over 100 µM.

The molecule `COc1ccc(-c2cc(-c3cc4cc(Br)ccc4nc3Cl)c(C#N)c(N)n2)cc1` came in with a TGI of over 12.5 µM.

For the molecule `COc1ccc(C2N(NC(=O)c3ccncc3)C(=O)CS2(=O)=O)cc1F` (stereo unspecified), the TGI is over 100 µM.

In the case of `Cc1ccc(CNc2c3ccccc3nc3cc(NC(=O)CCN4CCCC4)ccc23)cc1`, the GI50 was 0.468 µM and the TGI stood at 1.72 µM.

On to `CC1(C)C2C=CC1(C)C1(CC2)OCCO1` (stereo unspecified), for which the TGI is over 100 µM.

For `C/C(CC(=O)Nc1ccc(Cl)cc1)=N\NC(N)=S`, the TGI is over 100 µM.

On to `Nc1ccccc1CC(O)C(=O)O` (stereo unspecified), for which the TGI was over 100 µM.

On to `CN(C)c1ccc2c(c1)OC(N)=C(C#N)C2c1ccc2c(c1)CCO2` (stereo unspecified), for which the GI50 is 0.517 µM and the TGI is over 100 µM.

`Cc1c(NC(=O)CSC(=S)N2CCN(Cc3ccccc3)CC2)c(=O)n(-c2ccccc2)n1C` returned a TGI of over 100 µM.

In turn, `CC(=O)Nc1ccc(OC2=CCN(C)CC2)cc1` yielded a TGI of over 100 µM.

The molecule `CN(C(=O)c1ccco1)C(=S)N1CCN(c2ccccc2)CC1` yielded a TGI of over 100 µM.

Consider `Cc1ccc(C)c(NC(=O)CC/C(=N\NC(=O)c2c(O)ccc3ccccc23)C(C)C(=O)c2ccc(O)cc2)c1` (stereo unspecified), for which the TGI was over 100 µM.

Turning to `C[CH2][Sn]([CH2]C)([O]C(=O)C(OC(C)=O)c1ccccc1)[O]C(=O)C(OC(C)=O)c1ccccc1` (stereo unspecified), the GI50 was 92.1 µM and the TGI is over 100 µM.

In the case of `COC(=O)c1cc2ccc(OC(C)=O)c(OC(C)=O)c2cn1`, the TGI was 53.5 µM.

Consider `C=C1c2[nH]c3c([N+](=O)[O-])c(OC)ccc3c2CCN1C(C)=O`, for which the TGI is over 100 µM.

Turning to `O=C(Nc1nc2ccccc2s1)c1cc([N+](=O)[O-])ccc1Cl`, the TGI was over 100 µM.

As to `C1CN(SSN2CCOCC2)CCO1`, the GI50 was 52.1 µM and the TGI was over 100 µM.

In turn, `COc1cc2cc[n+]3c(C)c4cc(OC)c(OC)cc4c([O-])c3c2cc1OC` gave a TGI of over 100 µM.

On to `O=C(Nc1ccc(Cl)c(Cl)c1)O/N=C\c1c(Cl)ccc([N+](=O)[O-])c1Cl`, for which the GI50 is 2.01 µM and the TGI turned out to be 4.35 µM.

On to `O=S1(=O)OCCOS(=O)(=O)C1Cc1ccccc1`, for which the TGI was over 100 µM.

For `CC(C)C(OC(=O)c1ccc(NCc2cc(O)ccc2O)cc1)C(C)C`, the TGI was 18.1 µM.

Consider `CCOc1cc2ncc(C#N)c(Nc3ccc(OCc4ccccn4)c(Cl)c3)c2cc1NC(=O)/C=C/CN(C)C`, for which the GI50 was 0.0329 µM and 0.0364 µM.

For `COc1cc(C2c3cc4c(cc3OC(NNC(N)=O)C2C)OCO4)cc(OC)c1O` (stereo unspecified), the TGI was over 100 µM.

With `COc1ccccc1Cc1nc(-c2ccccc2)nn(C2OC(COC(C)=O)C(OC(C)=O)C(OC(C)=O)C2OC(C)=O)c1=S` (stereo unspecified), the TGI is over 100 µM.

Consider `CCCC(=O)NC(Nc1ccc(S(=O)(=O)Nc2nc(C)cc(C)n2)cc1)(C(F)(F)F)C(F)(F)F`, for which the TGI was over 100 µM.

The molecule `CN(C)c1nc2oc(-c3ccccc3)c(-c3ccccc3)c2c2nnnn12` yielded a TGI of over 100 µM.

On to `COC(=O)C1=C(c2cc(OC)c(OC)c(OC)c2)OC(c2ccc(OC)c(OC)c2)C1` (stereo unspecified), for which the TGI is over 100 µM.

As for `Cc1cccc(C(C)C)c1NC(=O)CC1C(=O)Nc2ccccc2S1(=O)=O` (stereo unspecified), the TGI was over 100 µM.
